{
  "source": "PubChem BioAssay AID624417",
  "about": "(National Center for Advancing Translational Sciences (NCATS), 2012)",
  "note": "Among all 410,000 compounds or so, about 6,400 (1.6%) were called active. Inconclusive results, whose numbers are uncertain, are shown with a selection of clear calls. Calls follow the shape of the dose curve; as a rule, active = well fitted inhibition curve with a large enough effect; inconclusive = small, poorly fitted or top-dose-only effect; inactive = no such curve, though single readings can be large or run the other way. No potency is given beside an inconclusive call; the fits are too rough. % is scaled to controls: 0 for no effect and ±100 for the full control effect; potency is read from the fitted curve at half-maximal effect; tags tell the direction and shape of the fitted curve.",
  "data": [
    {"target": "Glucagon-like peptide 1 receptor (Homo sapiens) (UniProt P43220)", "sequence (P43220 whole entry, looked up)": "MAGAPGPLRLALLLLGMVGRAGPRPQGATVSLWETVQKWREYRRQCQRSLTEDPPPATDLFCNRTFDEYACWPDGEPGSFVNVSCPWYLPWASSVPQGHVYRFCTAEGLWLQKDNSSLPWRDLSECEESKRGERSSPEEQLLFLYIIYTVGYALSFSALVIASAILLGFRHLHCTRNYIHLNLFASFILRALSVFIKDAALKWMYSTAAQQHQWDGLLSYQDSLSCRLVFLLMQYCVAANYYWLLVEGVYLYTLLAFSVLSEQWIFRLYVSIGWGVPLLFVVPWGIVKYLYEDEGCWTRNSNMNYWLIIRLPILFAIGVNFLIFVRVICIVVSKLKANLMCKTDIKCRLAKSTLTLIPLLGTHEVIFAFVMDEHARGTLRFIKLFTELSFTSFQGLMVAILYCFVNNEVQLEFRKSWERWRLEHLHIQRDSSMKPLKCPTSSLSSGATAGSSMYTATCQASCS", "assay": "qHTS of GLP-1 Receptor Inverse Agonists (Inhibition Mode); also: nearly all actives have a fitted effect of over 55% in size", "conditions": "HEK293 GLP-1R CRE-luciferase, luminescence, 24 h, GLP-1R form is constitutively active; activity change, negative = inhibition: at 38.3 µM (top of the series) unless noted", "procedure,_shortened": "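GLP-1R inverse agonism mode: basal reporter luminescence in engineered HEK293 cells measured after one day of compound exposure at 37 deg C, with a 12 min room-temperature detection step.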", "values": [
      {"smiles": "COc1ccc2c(c1OC)CN1CCc3cc4c(cc3[C@@H]1[C@@H]2O)OCO4", "activity change, negative = inhibition": "inactive: 2.37%"},
      {"smiles": "O=C(CCc1ccccc1)N1CCc2c([nH]c3ccccc23)C1c1ccc(F)cc1", "note": "(centres undefined)", "Potency": "inconclusive [inhibitor, partial curve, poor fit]"},
      {"smiles": "CCN(CC)c1ccc(/C=C(\\C#N)C(N)=O)cc1", "activity change, negative = inhibition": "inactive: 60.8%"},
      {"smiles": "CCOc1cc(CNc2ccc3c(c2)OCCO3)cc(Br)c1OC", "Potency": "inconclusive [inhibitor, full curve, poor fit]"},
      {"smiles": "COc1ccc(Cl)cc1NC(=O)CN(C)CC(=O)Nc1ccc2c(c1)OCO2", "Potency": "inconclusive [inhibitor, partial curve, poor fit]"},
      {"smiles": "COc1ccc(NC(=O)/C(N=Nc2cccc(S(=O)(=O)Nc3ccc(SC(F)F)cc3)c2)=C(\\C)O)cc1", "Potency": "inconclusive [inhibitor, partial curve, poor fit]"},
      {"smiles": "COc1ccc(CNC(=O)C(c2ccncc2)N(C(=O)Cc2cccs2)c2ccccc2)cc1", "note": "(centres undefined)", "activity change, negative = inhibition": "inactive: -6.6%"},
      {"smiles": "Nc1nc(C23CC4CC(CC(C4)C2)C3)cs1", "Potency": "inconclusive [inhibitor, partial curve, poor fit]"},
      {"smiles": "Cc1ccc(-c2noc(CCC(=O)NCC3CCN(Cc4cccc(C)c4)CC3)n2)cc1", "Potency": "inconclusive [inhibitor, partial curve, poor fit]"},
      {"smiles": "Cc1cc(C)c(NC(=O)CNC(=O)c2cc(C3CC3)nc3c2cnn3C(C)C)c(C)c1", "Potency": "inconclusive [inhibitor, single point]"},
      {"smiles": "O=C(Nc1ccc(S(=O)(=O)N(Cc2ccccc2)c2ccccc2)cc1)c1ccc(F)cc1", "Potency": "inconclusive [inhibitor, full curve, poor fit]"},
      {"smiles": "O=C(Nc1nnc(-c2ccccc2)o1)c1cc(-c2cccs2)nc2ccccc12", "Potency": "inconclusive [inhibitor, single point]"},
      {"smiles": "Cc1cccc(C(=O)Nc2ccc(S(=O)(=O)N3CCCCC3c3cccnc3)cc2)c1", "note": "(centres undefined)", "Potency": "inconclusive [inhibitor, single point]"},
      {"smiles": "CN(C)c1cc(NC(=O)CNC(C)(C)CC(C)(C)C)c2ccccc2n1", "Potency": "inconclusive [inhibitor, partial curve, poor fit]"},
      {"smiles": "CC(C)(C)NC(=O)C1CCN(C(=O)c2ccc(-c3ccccc3)cc2)CC1", "Potency": "inconclusive [inhibitor, single point]"},
      {"smiles": "COc1ccc(Cl)cc1S(=O)(=O)N1CCN(C(=O)c2cc(-c3ccc(Br)cc3)n[nH]2)CC1", "Potency": "active: 10 µM"},
      {"smiles": "COc1ccc(S(=O)(=O)N2CCC(C(=O)N[C@@H](C)C(=O)NCc3ccccc3OC)CC2)cc1", "activity change, negative = inhibition": "inactive: 6.32%"},
      {"smiles": "O=C(NCc1ccccc1)C1=C[C@@H](c2ccc(C(F)(F)F)cc2)C[C@@H](OCCCCO)O1", "Potency": "inconclusive [inhibitor, single point]"},
      {"smiles": "Cc1ccccc1S(=O)(=O)Cc1ccc(C(=O)N2CCN(c3ccccc3F)CC2)o1", "Potency": "inconclusive [inhibitor, partial curve, poor fit]"},
      {"smiles": "CCc1cc2cccc(C)c2nc1SCC(=O)N1CCN(C(=O)c2ccco2)CC1", "activity change, negative = inhibition": "inactive: -12.4%"},
      {"smiles": "O=C(CSc1nc(=O)[nH]c2c1CCC2)NCc1ccc(F)cc1", "activity change, negative = inhibition": "inactive: 0.453%"},
      {"smiles": "CC1CCN(c2c(NCC3CCC(C(=O)NCc4ccccc4)CC3)c(=O)c2=O)CC1", "note": "(centres undefined)", "activity change, negative = inhibition": "inactive: 6.23%"},
      {"smiles": "CN(c1ccccc1)S(=O)(=O)c1ccc(NC(=O)c2ccc(F)cc2)cc1", "Potency": "inconclusive [inhibitor, partial curve, poor fit]"},
      {"smiles": "CN(CC(=O)NCC1CCCCC1)S(=O)(=O)c1ccc(F)cc1", "Potency": "inconclusive [inhibitor, single point]"},
      {"smiles": "Cc1ccc(C(C)C)cc1OCC(=O)Nc1ccccc1N1CCCC1", "Potency": "active: 2.51 µM"},
      {"smiles": "Cc1[nH]nc(-c2cccnc2)c1N=NN(C)C", "Potency": "inconclusive [inhibitor, single point]"},
      {"smiles": "CC(C)Cc1cc(C(=O)N2CCCC(CO)(Cc3ccc(F)cc3F)C2)n[nH]1", "note": "(centres undefined)", "Potency": "inconclusive [inhibitor, single point]"},
      {"smiles": "Cc1cccc(-c2nc(C)c(CCNC(=O)C(=O)Nc3ccc(C)c(C)c3)s2)c1", "activity change, negative = inhibition": "inactive: 3.98%"},
      {"smiles": "COc1cccc(CN(C)C(=O)c2cccc(S(=O)(=O)N3CCN(c4ccc(F)cc4)CC3)c2)c1OC", "Potency": "inconclusive [inhibitor, single point]"},
      {"smiles": "CC1(C)CC(NC(=O)C(=O)NCCc2ccc(Cl)cc2)CC(C)(C)N1", "Potency": "inconclusive [inhibitor, single point]"},
      {"smiles": "CCOc1cc2[nH]c(=S)n(CCC(=O)NC3CCCCC3)c(=O)c2cc1OCC", "activity change, negative = inhibition": "inactive: -7.73%"},
      {"smiles": "COc1cc(N2Cc3ccccc3C2)ccc1C=O", "Potency": "inconclusive [inhibitor, full curve, poor fit]"},
      {"smiles": "O=C1CC(c2ccc(F)cc2)CC2=C1C=Nc1ccccc1N2", "note": "(centres undefined)", "Potency": "inconclusive [inhibitor, single point]"},
      {"smiles": "Nc1nc(N2CCN(C(=O)c3ccco3)CC2)nc2ccccc12", "activity change, negative = inhibition": "inactive: 21.1%"},
      {"smiles": "CC1(C)SC(=S)N(NC(=O)Nc2ccccc2)C1N(O)C(=O)Nc1cccc2ccccc12", "note": "(centres undefined)", "Potency": "inconclusive [inhibitor, partial curve, poor fit]"},
      {"smiles": "COc1ccccc1CNC(=O)c1ccc(CSc2nc3ccncc3n2Cc2cccc(F)c2)cc1", "Potency": "inconclusive [inhibitor, partial curve, poor fit]"},
      {"smiles": "CCOC(=O)C1C(C(=O)OCC)C1(c1ccccc1)c1ccccc1", "note": "(centres undefined)", "Potency": "inconclusive [inhibitor, partial curve, poor fit]"},
      {"smiles": "CCCn1ccc2c(OCC(=O)Nc3ccc(OC)c(OC)c3)cccc2c1=O", "activity change, negative = inhibition": "inactive: 10.2%"},
      {"smiles": "Cc1ccc(S(=O)(=O)NCCC(=O)NNC(=O)COc2ccc(Br)cc2)cc1C", "Potency": "inconclusive [inhibitor, single point]"},
      {"smiles": "O=C(Nc1ccc(F)cc1)Nc1csc2ccccc12", "Potency": "inconclusive [inhibitor, partial curve, poor fit]"},
      {"smiles": "COc1ccc2c(Sc3ccccc3)c(C(=O)NCc3cc(Br)ccc3OC)[nH]c2c1", "activity change, negative = inhibition": "inactive: 10.3%"},
      {"smiles": "O=C(Nc1ccccc1N1CCOCC1)c1cccc2c(Br)cccc12", "Potency": "inconclusive [inhibitor, partial curve, poor fit]"},
      {"smiles": "CSc1nc2ccc(S(=O)(=O)N3CCc4ccccc43)cc2s1", "Potency": "inconclusive [inhibitor, single point]"},
      {"smiles": "FC(F)(F)c1ccc(/C=N/n2c(C3CCCCC3)n[nH]c2=S)cc1", "Potency": "inconclusive [inhibitor, single point]"},
      {"smiles": "COc1ccc(NC(=O)COc2ccccc2Cl)cc1S(=O)(=O)N1CCCCC1", "Potency": "inconclusive [inhibitor, single point]"},
      {"smiles": "O=C(NCCCCc1ccccc1)c1ccc(F)cc1", "Potency": "inconclusive [inhibitor, partial curve, poor fit]"},
      {"smiles": "O=C(NC1(C(F)(F)F)NC(=O)N(C2CCCCC2)C1=O)c1cccs1", "note": "(centres undefined)", "Potency": "inconclusive [inhibitor, single point]"},
      {"smiles": "C=CCOc1cccc(C(=O)N(C)C2CCCN(Cc3ccccc3F)C2)c1", "note": "(centres undefined)", "Potency": "inconclusive [inhibitor, single point]"},
      {"smiles": "O=C(CCS(=O)(=O)c1cccc2nonc12)Nc1ccc(F)cc1F", "activity change, negative = inhibition": "inactive: 21.2%"},
      {"smiles": "CC(C)(C)c1ccc(C(=O)NC(=S)NCc2ccco2)cc1", "Potency": "inconclusive [inhibitor, partial curve, poor fit]"},
      {"smiles": "O=C(CN(C1CC1)S(=O)(=O)c1ccc(S(=O)(=O)NC2CCCCC2)cc1)Nc1ccccc1", "Potency": "inconclusive [inhibitor, partial curve, poor fit]"},
      {"smiles": "O=C(c1sc2cc([N+](=O)[O-])ccc2c1Cl)N1CCOCC1", "activity change, negative = inhibition": "inactive: 5.83%"},
      {"smiles": "O=C(Nc1ccccc1)OCCNC(=O)c1cccc(Cl)c1", "Potency": "inconclusive [inhibitor, single point]"},
      {"smiles": "COc1ccc(Br)cc1CNC(=O)Cn1ncn2nc(-c3cccs3)cc2c1=O", "activity change, negative = inhibition": "inactive: 0.811%"},
      {"smiles": "CC1CCCN(c2nc(-c3cccnc3)nc3scc(-c4ccccc4)c23)C1", "note": "(centres undefined)", "Potency": "inconclusive [inhibitor, single point]"},
      {"smiles": "Cc1cccc(OCC(O)CN2CCN(C3CCCCC3)CC2)c1", "note": "(centres undefined)", "Potency": "inconclusive [inhibitor, single point]"},
      {"smiles": "COc1ccc([C@H]2CC(=O)C=C(c3ccc(Cl)cc3C)C2)cc1", "activity change, negative = inhibition": "inactive: -2.48%"},
      {"smiles": "O=C(NCc1ccco1)Nc1cccc2ccccc12", "Potency": "inconclusive [inhibitor, partial curve, poor fit]"},
      {"smiles": "COc1ccc(C#Cc2ccc3c(c2)O[C@@H](CN(C)C(=O)Nc2cccc(OC)c2)[C@H](C)CN([C@@H](C)CO)S3(=O)=O)cc1", "Potency": "inconclusive [inhibitor, partial curve]"},
      {"smiles": "Cc1ccc(CNC(=O)C(C)n2c(=O)cc(-c3ccccc3)c3c(C)nn(C)c32)cc1", "note": "(centres undefined)", "Potency": "inconclusive [inhibitor, single point]"},
      {"smiles": "CN1/C(=C\\C(=O)Nc2ccc(Br)cc2)C(C)(C)c2ccccc21", "Potency": "inconclusive [inhibitor, single point]"},
      {"smiles": "Cc1ccc2nc(-c3c[nH]c4ccccc34)c(Nc3ccc(F)cc3)n2c1", "Potency": "inconclusive [inhibitor, single point]"},
      {"smiles": "Fc1ccc(C2CC(c3ccco3)=Nc3ccccc3S2)cc1", "note": "(centres undefined)", "Potency": "inconclusive [inhibitor, partial curve, poor fit]"},
      {"smiles": "Cc1ccc(-c2nc3cc(C)c(Br)c(C)n3c2Cc2cccc(F)c2)cc1", "Potency": "inconclusive [inhibitor, partial curve]"}
    ]}
  ]
}
